# Source: a collection of fitness landscapes (doi:10.1016/j.celrep.2020.107928)
# The full ranking holds about 81,000 sequences; the median of “one-hybrid fitness for binding parS DNA” is about -0.17, and the highest 2% start at about 0.51. Some of the results follow.
# B1: Caulobacter ParB omega fusion; a variant is named by its letters at X, in order, B8GW30 (parent)
# chain: MESVVVGEPGMSEGRRGLGRGLSALLGEVDAAPAQAPGEQLGGSREAPIEILQRNPDQPRRTFREEDLEDLSNSIREKGVLQPILVRPSPDTAGEYQIVAGERAWRAAQRAGLKTVPIMVRELDDLAVLEIGIIENVQRADLNVLEEALSYKVLMEKFERTQENIAQTIGKSXSHVANXMRLLXLPDEVQSYLVSGELTAXHARAIAAAADPVALAKQIIEGGLSVRETEALARKAPNLSAGKSKGGRPPRVKDTDTQALESDLSSVLGLDVSIDHRGSTGTLTITYATLEQLDDLCNRLTRGI
# Variants of: B1
# Assay: one-hybrid fitness for binding parS DNA (scaled: cognate 1, non-cognate 0); higher = stronger binding
# Conditions: with parS DNA site
# Summary of the method: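 In E. coli USO, a HIS3 reporter with its site placed 19 bp from the promoter was used to select Caulobacter ParB variants randomised at four specificity codons. Growth lasted 48 hours at 37°C on histidine-free M9 containing 0.1 mM IPTG and 5 mM 3-AT. Fitness was taken as the log change in variant-to-wild-type read ratio from Illumina sequencing of pre- and post-selection plasmids, rescaled between the non-cognate and cognate sites.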
row,Variant,one-hybrid fitness for binding parS DNA
1,DRML,≤ 0.2
2,APLF,≤ 0.2
3,WWKR,≤ 0.2
4,RVKR,≤ 0.2
5,QATT,≤ 0.2
6,KLHI,≤ 0.2
7,LLLK,≤ 0.2
8,PPCD,≤ 0.2
9,CAMT,≤ 0.2
10,TNCY,≤ 0.2
11,RCRP,≤ 0.2
12,FARC,≤ 0.2
13,PIMQ,≤ 0.2
14,DPPT,≤ 0.2
15,YSYA,≤ 0.2
16,SLLK,≤ 0.2
17,YSNW,≤ 0.2
18,ANTN,≤ 0.2
19,KEAG,≤ 0.2
20,MKLR,≤ 0.2
21,NRNP,≤ 0.2
22,IPSN,≤ 0.2
23,RARE,≤ 0.2
24,GKNY,≤ 0.2
25,QMTS,≤ 0.2
26,PATT,≤ 0.2

row,Variant,one-hybrid fitness for binding parS DNA
1,CNSA,≤ 0.2
2,HPRG,≤ 0.2
3,PHPW,≤ 0.2
4,TTNS,≤ 0.2
5,SMHR,≤ 0.2
6,APCM,≤ 0.2
7,MVGC,≤ 0.2
8,ISVR,≤ 0.2
9,RTAQ,≤ 0.2
10,FDGS,≤ 0.2
11,CMQR,≤ 0.2
12,TKAV,≤ 0.2
13,PQKC,≤ 0.2
14,LLHF,≤ 0.2
15,QTYW,≤ 0.2
16,NKKT,≤ 0.2
17,QHWV,≤ 0.2
18,IIAR,≤ 0.2
19,ISTF,≤ 0.2
20,VNDW,≤ 0.2
21,AHSR,≤ 0.2
22,DKGR,≤ 0.2
23,SPQT,≤ 0.2
24,EQPS,≤ 0.2
25,WKCS,≤ 0.2
26,QGER,≤ 0.2

row,Variant,one-hybrid fitness for binding parS DNA
1,MIWR,≤ 0.2
2,NSIS,≤ 0.2
3,QAWQ,≤ 0.2
4,RVFA,0.611
5,QGIT,≤ 0.2
6,RCCV,≤ 0.2
7,RWHC,0.733
8,MSPL,≤ 0.2
9,WDDS,≤ 0.2
10,WLSL,≤ 0.2
11,SVNY,≤ 0.2
12,RGTQ,≤ 0.2
13,CLEA,≤ 0.2
14,FRFS,≤ 0.2
15,KAMT,≤ 0.2
16,RLYK,≤ 0.2
17,STAS,≤ 0.2
18,SDLM,≤ 0.2
19,RVWR,≤ 0.2
20,TPVI,≤ 0.2
21,VGMS,≤ 0.2
22,ECSD,≤ 0.2
23,DADT,≤ 0.2
24,GWDP,≤ 0.2
25,AYVG,≤ 0.2
26,RGKI,≤ 0.2

row,Variant,one-hybrid fitness for binding parS DNA
1,RNGC,0.769
2,CHNC,≤ 0.2
3,HTFC,≤ 0.2
4,TIHR,≤ 0.2
5,ILCQ,≤ 0.2
6,QMIC,≤ 0.2
7,FPSI,≤ 0.2
8,AFYR,≤ 0.2
9,LSFR,≤ 0.2
10,TYKT,≤ 0.2
11,AVVG,≤ 0.2
12,PNSR,≤ 0.2
13,HQDK,0.258
14,ADTT,≤ 0.2
15,WHVF,≤ 0.2
16,ALLL,≤ 0.2
17,TNPS,≤ 0.2
18,IGDM,≤ 0.2
19,QYFR,≤ 0.2
20,IYVL,≤ 0.2
21,ESIK,≤ 0.2
22,WPKW,≤ 0.2
23,KRYA,≤ 0.2
24,YQYG,≤ 0.2
25,PAGF,≤ 0.2
26,DFLN,≤ 0.2

row,Variant,one-hybrid fitness for binding parS DNA
1,MVSV,≤ 0.2
2,HKTG,≤ 0.2
3,QCEK,≤ 0.2
4,ITFY,≤ 0.2
5,CLWR,≤ 0.2
6,YEDC,≤ 0.2
7,ESNE,≤ 0.2
8,DRAL,≤ 0.2
9,TFFP,≤ 0.2
10,PYLP,≤ 0.2
11,VFKG,≤ 0.2
12,IIMD,≤ 0.2
13,CLDL,≤ 0.2
14,ARIC,≤ 0.2
15,WGSD,≤ 0.2
16,SWRG,≤ 0.2
17,PVPW,≤ 0.2
18,AERT,≤ 0.2
19,PPKM,≤ 0.2
20,QYPI,≤ 0.2
21,PLGW,≤ 0.2
22,GRPN,≤ 0.2
23,TKHR,≤ 0.2
24,FRKR,≤ 0.2
25,YPMK,≤ 0.2
26,VNEG,≤ 0.2

row,Variant,one-hybrid fitness for binding parS DNA
1,HPHL,≤ 0.2
2,RYLL,≤ 0.2
3,HPVL,≤ 0.2
4,HSNP,≤ 0.2
5,NTRM,≤ 0.2
6,HCNF,≤ 0.2
7,HRFC,0.213
8,KATS,≤ 0.2
9,TLDY,≤ 0.2
10,QGMN,≤ 0.2
11,WSDG,≤ 0.2
12,QTLH,≤ 0.2
13,GDHA,≤ 0.2
14,RLDN,0.416
15,DVYE,≤ 0.2
16,ATHP,≤ 0.2
17,VPGS,≤ 0.2
18,PVDN,≤ 0.2
19,RKNN,0.327
20,RVCK,≤ 0.2
21,VLFR,≤ 0.2
22,YAMR,≤ 0.2
23,LNAS,≤ 0.2
